# Hit rate of the full screen: of about 310,000 compounds, about 18,000 (5.8%) were called active. This list was built around the results that the source calls inconclusive (neither active nor inactive); the mix of calls is not that of the screen. Calls come from the whole dose curve; as a rule, active = well fitted inhibition curve with a large enough effect; inconclusive = small, poorly fitted or top-dose-only effect, or another doubt; inactive = no such curve, though single readings can be large or run the other way. Potencies of inconclusive entries are left out as doubtful fits.
# Assay: Primary qHTS for delayed death inhibitors of the malarial parasite plastid, 48 hour incubation
# Conditions: P. falciparum luciferase growth in erythrocytes; series mostly up to 28.7 µM
# In short: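 Growth was read as firefly luciferase luminescence after a 48 h, 37 C, 5% CO2 exposure of compounds to reporter-bearing P. falciparum cultures (0.1% parasitemia, 2% hematocrit final) in Albumax-supplemented RPMI 1640.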
# Potency is the fitted concentration of half-maximal effect; tags give direction and shape of the fitted curve.
row,Compound,Potency
1,O=[N+]([O-])c1cc(-c2nc(-c3ccncc3)no2)ccc1Cl,inactive
2,CC1CN(Cc2c(O)ccc3c2oc(=O)c2ccccc23)CC(C)O1 (centres undefined),active: 6.57 µM
3,CCn1c(NCc2cc(OC)ccc2OC)nc2ccccc21,"inconclusive [inhibitor, single point]"
4,CC1CCCN(C(=O)c2ccc3c(c2NCCO)C(=O)c2ccccc2C3=O)C1 (centres undefined),"inconclusive [inhibitor, single point]"
5,O=C(CSCc1ccccc1)Nc1ccc(S(=O)(=O)Nc2ncccn2)cc1,inactive
6,CC1=C(C(=O)Nc2ccccc2)C(c2ccco2)C(C#N)=C(SCC(=O)OC(C)C)N1 (centres undefined),active: 2.33 µM
7,Cc1occc1C(=O)N/N=C/C1=C(N2CCOCC2)C(=C\c2ccc(Cl)cc2Cl)/CC1,inactive
8,CCOc1ccc(Cc2c(Cl)nc(SC)nc2N(C)C)cc1,"inconclusive [inhibitor, partial curve, poor fit]"
9,CCN1C(=O)CC(NNC(=O)c2ccc(Cl)cc2)C1=O (centres undefined),inactive
10,CC1=C/C(=N\OS(=O)(=O)c2ccccc2)C=CC1=O,"inconclusive [inhibitor, single point]"
11,CC(C)Nc1ccc(C(CC(N)=O)NC(=O)Cc2ccc(Br)cc2)cc1[N+](=O)[O-] (centres undefined),"inconclusive [inhibitor, partial curve, poor fit]"
12,CCCN(CC(=O)Nc1ccccc1OC)C(=O)CCC(=O)c1ccc(OCC)cc1,"inconclusive [inhibitor, single point]"
13,CC(OC(=O)CCN1C(=O)C2CC=CCC2C1=O)C(=O)Nc1cccc(C#N)c1 (centres undefined),inactive
14,COC(=O)c1sc(NC(=O)c2csc3c2CCCC3)nc1C,"inconclusive [inhibitor, single point]"
15,Cc1cc(C)c2nc(C(F)(F)F)nc(N3CCN(C(=O)c4ccco4)CC3)c2c1,"inconclusive [inhibitor, partial curve, poor fit]"
16,CCN(CC(=O)Nc1c(F)cccc1F)C(=O)c1ccc2c(c1)OCCO2,inactive
17,CCCn1cc(SCC(=O)Nc2ccc3c(c2)OCO3)c2ccccc21,"inconclusive [inhibitor, partial curve, poor fit]"
18,CC(C)Cc1nnc(NC(=O)CCC(=O)N2CCN(Cc3ccc(Cl)cc3)CC2)s1,"inconclusive [inhibitor, partial curve, poor fit]"
19,CC(C)C(=O)Nc1ccc2c(c1)nc1n2CCSC1,inactive
20,COc1cc(SC)ccc1C(=O)NCCCn1ccnc1,inactive
21,O=C(CN(Cc1cccs1)S(=O)(=O)c1ccc(S(=O)(=O)N2CCCCC2)cc1)Nc1ccccc1,"inconclusive [inhibitor, partial curve, poor fit]"
22,COc1ccc(NC(=O)CCN=C2NS(=O)(=O)c3ccccc32)cc1S(=O)(=O)N(C)C,"inconclusive [inhibitor, single point]"

row,Compound,Potency
1,COCCN1CCn2c(nc3cc(NC(=O)NC4CCCCC4)ccc32)C1,inactive
2,COc1ccc2nc3cc(Cl)ccc3c(Nc3cc(C(C)C)c(O)cc3C)c2c1,active: 0.0208 µM
3,C#CCOCCOCCOCCNc1nc(N2CCOCC2)nc(N2CCN(C(=O)CCCCCCCCCCNC(=O)[C@H]([C@@H](C)CC)n3cc(CCCCN=C(N)N)nn3)CC2)n1,active: 0.37 µM
4,O=C(N/N=C/c1c(O)n(C2CCCCC2)c(=S)[nH]c1=O)c1ccccc1O,"inconclusive [inhibitor, partial curve, poor fit]"
5,COc1ccc2nc(N3CCN(C(=O)c4ccc5ncsc5c4)CC3)sc2c1,"inconclusive [inhibitor, single point]"
6,CS(=O)(=O)c1cccc(S(=O)(=O)N2CCCCCC2)c1,inactive
7,Cc1cccc(CCN2C(Nc3ccccc3)=NC[C@@H]2C)c1,"inconclusive [inhibitor, partial curve, poor fit]"
8,CC(C)(C)NC(=O)COC(=O)c1ccc(NC(=O)CC#N)cc1,"inconclusive [inhibitor, single point]"
9,CCOC(=O)c1c(C)n(-c2ccc(C)cc2)c2ccc(OCC(O)CN3CCN(C)CC3)cc12 (centres undefined),active: 9.28 µM
10,Cn1c(CCN2CCN(c3ccccn3)CC2)nc2cc(NS(=O)(=O)c3ccc(Cl)cc3)ccc21,active: 9.28 µM
11,Cc1cc(C)c2c(N)c(C(=O)NN3CC(=O)N(c4ccccc4F)CC3=O)sc2n1,inactive
12,COc1cccc(NC(=O)CSc2nc3ccccc3c3nc4ccccc4n23)c1,active: 13.1 µM
13,C=CCN1C(=O)c2ccc(C(=O)N3CCN(S(=O)(=O)c4cccc(Cl)c4)CC3)cc2C1=O,active: 10.4 µM
14,Cc1ccc2[nH]c(=O)c(CN(CCCN(C)C)C(=S)NCCc3ccccc3)cc2c1,"inconclusive [inhibitor, partial curve, poor fit]"
15,Nc1n[nH]c(-c2ccc(F)cc2)n1,inactive
16,Cc1ccc(NC(=O)CSc2nn3c(=O)c(C)nnc3s2)cc1Cl,active: 13.1 µM
17,CCN1C(=O)N/C(=C/c2ccc(Sc3ccc(C)cc3)o2)C1=O,"inconclusive [inhibitor, single point]"
18,CCC(=O)c1cn(CC(=O)Nc2ccccc2Cl)c2ccccc12,"inconclusive [inhibitor, full curve, poor fit]"
19,O=C(NCCc1cccc(F)c1)C1CCCN(c2nc3ccccc3s2)C1 (centres undefined),"inconclusive [inhibitor, single point]"
20,CC1(C)CC(CCNCc2ccc3c(c2)OCO3)(Cc2ccccc2)CCO1 (centres undefined),"inconclusive [inhibitor, single point]"
21,Cc1cc(S(=O)(=O)N2CCCCC2CCNC(=O)C(=O)NCC2CCCO2)ccc1F (centres undefined),"inconclusive [inhibitor, partial curve, poor fit]"
22,CC(=O)c1ccc(NC(=S)NCCc2cccc(Cl)c2)cc1,"inconclusive [inhibitor, single point]"

# — PubChem BioAssay AID504832 (National Center for Advancing Translational Sciences (NCATS), 2011)
